Data reported in PubChem BioAssay AID1345083 (National Center for Advancing Translational Sciences (NCATS), 2018).
Screen size: about 94,000 compounds; about 6,200 (6.6%) were called active. The shares of active, inactive and inconclusive entries below differ from those in the screen. Calls follow the shape of the dose curve; as a rule, active = well fitted inhibition curve with a large enough effect; inconclusive = small, poorly fitted or top-dose-only effect; inactive = flat fitted curve, though single readings scatter. Where the call is inconclusive, the potency comes from a doubtful curve fit.

Assay: Cytotoxic Profiling in HEK 293 Cell Line of Diverse Libraries Using Quantitative High-Throughput Screening; also: nearly all actives have a fitted effect of over 60% in size
Conditions: HEK 293 viability, ATP luminescence (CellTiter-Glo), 48-72 h; activity change, negative = cytotoxicity: at 115 µM (top of the series) unless noted; series mostly up to 115 µM
Outline: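 Cytotoxicity was scored by loss of ATP-coupled luminescence (CellTiter-Glo) in HEK 293 cells. Compound treatment ran 48 or 72 hr at 37 degree Celsius, 5% CO2, 95% humidity.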
% is scaled to controls: 0 for no effect and ±100 for the full control effect; potency is read from the fitted curve at half-maximal effect; tags tell the direction and shape of the fitted curve.

Question: With `COc1ccc(-c2cc(N3CCC(NC(=O)c4ccc(C)cc4C)C3)n[nH]2)cc1` (configuration not stated) as the molecule, how does the Potency read?
Answer: Its Potency is inconclusive: 89.1 µM [inhibitor, single point].

Question: Which Potency does the source give for `COc1ccc(-c2ccnc(-c3nnc(C)n3C3CCCCC3)c2)cc1OC` here?
Answer: Its Potency is inconclusive: 79.4 µM [inhibitor, partial curve, poor fit].

Question: For `O=C(Nc1ccc(Cl)cc1)N1CCN(C(=O)c2nc3cccnc3n(Cc3ccccc3)c2=O)CC1`, which Potency is on record?
Answer: The Potency was inconclusive: 31.6 µM [inhibitor, partial curve, poor fit].

Question: With `Cn1nc(C(=O)NC2CC2)c2c1CN(C(=O)c1cccs1)C2` as the molecule, how does the “activity change, negative = cytotoxicity” value read?
Answer: Its value is inactive: -15.4%.

Question: With `COc1cccc(-c2noc(N3CCCC3)n2)c1OC` as the molecule, how does the “activity change, negative = cytotoxicity” value read?
Answer: The value was inactive: 0.373%.

Question: With `Cn1nccc1CN1CC2(C1)C(=O)Nc1ccccc12` as the molecule, how does the Potency read?
Answer: Its Potency is inconclusive: 126 µM [inhibitor, single point].

Question: Which Potency does the source give for `O=C1[C@@H]2C[C@@H](CN2Cc2ccc(F)c(F)c2)Oc2ccccc2N1Cc1ccccn1` here?
Answer: Its Potency is inconclusive: 70.8 µM [inhibitor, partial curve, poor fit].

Question: Which Potency does the source give for `CCCC1=Nc2cc(C(=O)NCCc3ccccc3)ccc2Sc2ccc(C)cc21` here?
Answer: Its Potency is inconclusive: 3.16 µM [inhibitor, full curve, poor fit].

Question: With `Cc1ncccc1C(=O)N1CC(Oc2ccccc2-c2nc(-c3ccccc3)no2)C1` as the molecule, how does the Potency read?
Answer: Its Potency is inconclusive: 39.8 µM [inhibitor, full curve, poor fit].

Question: For `CCC(O)c1cc2n(n1)CCN(c1nc(-c3ccccc3)nc3c1CCC3)C2` (configuration not stated), which Potency is on record?
Answer: Its Potency is inconclusive: 50.1 µM [inhibitor, partial curve, poor fit].

Question: With `OC(CNc1nccc(-c2cccnc2)n1)COc1ccc(Cl)cc1` (configuration not stated) as the molecule, how does the Potency read?
Answer: The Potency was inconclusive: 50.1 µM [inhibitor, partial curve, poor fit].

Question: Which Potency does the source give for `O=C1OC2(CN1CCOc1ccccc1)CN(C(=O)c1ccc(Oc3ccccc3)cc1)C2` here?
Answer: Its Potency is inconclusive: 12.6 µM [inhibitor, full curve, poor fit].

Question: Which Potency does the source give for `COc1cccc(CN2C(=O)OC3(CCN(Cc4c[nH]c5ccccc45)CC3)C2(C)c2cccnc2)c1` (configuration not stated) here?
Answer: Its Potency is inconclusive: 79.4 µM [inhibitor, partial curve, poor fit].

Question: Which Potency does the source give for `COc1ccccc1Nc1ccnc(N2CCN(C(=O)c3cccc(Cl)c3)CC2)n1` here?
Answer: Its Potency is inconclusive: 39.8 µM [inhibitor, partial curve, poor fit].

Question: Which Potency does the source give for `O=C(c1ccc(Cl)cc1)N1CC2(CCCN(Cc3cccnc3)C2)Cc2ccccc21` (configuration not stated) here?
Answer: The Potency was active: 39.8 µM.

Question: Which Potency does the source give for `CCc1ccc(NC(=O)Cn2c(-c3ccc(Cl)cc3)nc(C)c(CCO)c2=O)cc1` here?
Answer: The Potency was active: 39.8 µM.

Question: For `Fc1ccc(-c2cc(CC3(NC4CCCCC4)COC3)no2)cc1`, which Potency is on record?
Answer: Its Potency is inconclusive: 126 µM [inhibitor, single point].
